Experimental data from the supplement of paper PMC4604168 (melanoma cell lines).
The list shows a part of the results. Single values are uncertain, as repeats are few or missing.

How the values were obtained:
Test in all cases: cell count relative to DMSO control; melanoma cells; higher = more viable cells
Settings in all cases: library dose: low library concentration; 72 h
WM115 = test system: WM115
WM1716 = test system: WM1716
WM1745 = test system: WM1745
WM3526 = test system: WM3526
WM3619 = test system: WM3619
WM451Lu = test system: WM451Lu
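Also: cell number obtained by counting DAPI-stained nuclei in high-throughput microscope images with image analysis software, screen run in 1,536-well plates.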

CO[C@H]1C[C@@H]2CC[C@@H](C)[C@@](O)(O2)C(=O)C(=O)N2CCCC[C@H]2C(=O)O[C@H]([C@H](C)C[C@@H]2CC[C@@H](OCCO)[C@H](OC)C2)CC(=O)[C@H](C)/C=C(\C)[C@@H](O)[C@@H](OC)C(=O)[C@H](C)C[C@H](C)/C=C/C=C/C=C/1C [everolimus] + Nc1ccn([C@@H]2O[C@H](CO)[C@@H](O)C2(F)F)c(=O)n1 [gemcitabine] (first compound 0.02 µM, partner dose 0.0004 µM)
cell count (WM115): 83.6%
cell count (WM1716): 77.3%
cell count (WM1745): 72.7%
cell count (WM3526): 70.4%
cell count (WM3619): 58.1%
cell count (WM451Lu): 81.2%

CO[C@H]1C[C@@H]2CC[C@@H](C)[C@@](O)(O2)C(=O)C(=O)N2CCCC[C@H]2C(=O)O[C@H]([C@H](C)C[C@@H]2CC[C@@H](OCCO)[C@H](OC)C2)CC(=O)[C@H](C)/C=C(\C)[C@@H](O)[C@@H](OC)C(=O)[C@H](C)C[C@H](C)/C=C/C=C/C=C/1C [everolimus] + CCc1ccc(CCOc2ccc(CC3SC(=O)NC3=O)cc2)nc1 [pioglitazone] (first compound 0.02 µM, partner dose 2 µM)
cell count (WM115): 85.1%
cell count (WM1716): 79.2%
cell count (WM1745): 76.6%
cell count (WM3526): 71.6%
cell count (WM3619): 87.8%
cell count (WM451Lu): 81.4%

Nc1ncn([C@H]2C[C@H](O)[C@@H](CO)O2)c(=O)n1 [decitabine] + C=CCNC1=C2C[C@@H](C)C[C@H](OC)[C@H](O)[C@@H](C)/C=C(\C)[C@H](OC(N)=O)[C@@H](OC)/C=C\C=C(/C)C(=O)NC(=CC1=O)C2=O [Tanespimycin] (first compound 0.1 µM, partner dose 0.002 µM)
cell count (WM115): 86.2%
cell count (WM1716): 83.8%
cell count (WM1745): 89.5%
cell count (WM3526): 83.8%
cell count (WM3619): 102%
cell count (WM451Lu): 81.8%

CO[C@H]1C[C@@H]2CC[C@@H](C)[C@@](O)(O2)C(=O)C(=O)N2CCCC[C@H]2C(=O)O[C@H]([C@H](C)C[C@@H]2CC[C@@H](OCCO)[C@H](OC)C2)CC(=O)[C@H](C)/C=C(\C)[C@@H](O)[C@@H](OC)C(=O)[C@H](C)C[C@H](C)/C=C/C=C/C=C/1C [everolimus] + Cn1cncc1[C@@](N)(c1ccc(Cl)cc1)c1ccc2c(c1)c(-c1cccc(Cl)c1)cc(=O)n2C [tipifarnib] (first compound 0.02 µM, partner dose 0.01 µM)
cell count (WM115): 78.6%
cell count (WM1716): 75.4%
cell count (WM1745): 87.3%
cell count (WM3526): 75.2%
cell count (WM3619): 70.7%
cell count (WM451Lu): 75.9%

CC(=O)c1c(C)c2cnc(Nc3ccc(N4CCNCC4)cn3)nc2n(C2CCCC2)c1=O [palbociclib] + C#Cc1cccc(Nc2ncnc3cc(OCCOC)c(OCCOC)cc23)c1 [erlotinib] (first compound 0.04 µM, partner dose 0.8 µM)
cell count (WM115): 69.8%
cell count (WM1716): 67%
cell count (WM1745): 65.9%
cell count (WM3526): 55.2%
cell count (WM3619): 63.4%
cell count (WM451Lu): 69.9%

CC(=O)O[C@@]12CO[C@@H]1C[C@H](O)[C@@]1(C)C(=O)[C@H](O)C3=C(C)[C@@H](OC(=O)[C@H](O)[C@@H](NC(=O)OC(C)(C)C)c4ccccc4)C[C@@](O)([C@@H](OC(=O)c4ccccc4)[C@H]21)C3(C)C [Docetaxel] + Cc1cc([N+](=O)[O-])ccc1NS(=O)(=O)c1cc(Cl)ccc1Cl [FH535] (first compound 0.0001 µM, partner dose 1 µM)
cell count (WM115): 59.9%
cell count (WM1716): 36.2%
cell count (WM1745): 60.4%
cell count (WM3526): 45.3%
cell count (WM3619): 61.9%
cell count (WM451Lu): 57.1%

CC(=O)O[C@@]12CO[C@@H]1C[C@H](O)[C@@]1(C)C(=O)[C@H](O)C3=C(C)[C@@H](OC(=O)[C@H](O)[C@@H](NC(=O)OC(C)(C)C)c4ccccc4)C[C@@](O)([C@@H](OC(=O)c4ccccc4)[C@H]21)C3(C)C [Docetaxel] + O=C(O)c1ccc2c(c1)nc(Nc1cccc(Cl)c1)c1ccncc12 [CX4945] (first compound 0.0001 µM, partner dose 0.4 µM)
cell count (WM115): 60.1%
cell count (WM1716): 39.2%
cell count (WM1745): 63.6%
cell count (WM3526): 44.8%
cell count (WM3619): 61.4%
cell count (WM451Lu): 86.6%

Nc1ccn([C@@H]2O[C@H](CO)[C@@H](O)C2(F)F)c(=O)n1 [gemcitabine] + NC(=O)Nc1cc(-c2cccc(F)c2)sc1C(=O)N[C@H]1CCCNC1 [AZD7762] (first compound 0.0004 µM, partner dose 0.02 µM)
cell count (WM115): 83.1%
cell count (WM1716): 73.7%
cell count (WM1745): 49.5%
cell count (WM3526): 86.1%
cell count (WM3619): 30%
cell count (WM451Lu): 85.3%

CO[C@H]1C[C@@H]2CC[C@@H](C)[C@@](O)(O2)C(=O)C(=O)N2CCCC[C@H]2C(=O)O[C@H]([C@H](C)C[C@@H]2CC[C@@H](OCCO)[C@H](OC)C2)CC(=O)[C@H](C)/C=C(\C)[C@@H](O)[C@@H](OC)C(=O)[C@H](C)C[C@H](C)/C=C/C=C/C=C/1C [everolimus] + O=C(CCCCCCC(=O)Nc1ccccc1)NO [vorinostat] (first compound 0.02 µM, partner dose 0.08 µM)
cell count (WM115): 80.6%
cell count (WM1716): 80.3%
cell count (WM1745): 108%
cell count (WM3526): 72.9%
cell count (WM3619): 88.2%
cell count (WM451Lu): 75.6%

CC(=O)c1c(C)c2cnc(Nc3ccc(N4CCNCC4)cn3)nc2n(C2CCCC2)c1=O [palbociclib] + OCc1c[nH]c2ccccc12 [Indole-3-carbinol] (first compound 0.04 µM, partner dose 0.8 µM)
cell count (WM115): 84.2%
cell count (WM1716): 84.9%
cell count (WM1745): 92.1%
cell count (WM3526): 74.2%
cell count (WM3619): 67.5%
cell count (WM451Lu): 76.2%

Nc1nc(F)nc2c1ncn2[C@@H]1O[C@H](CO)[C@@H](O)[C@@H]1O [fludarabine] + CCN(CC)CCCCNc1ncc2cc(-c3cc(OC)cc(OC)c3)c(NC(=O)NC(C)(C)C)nc2n1 [PD173074] (first compound 0.2 µM, partner dose 0.1 µM)
cell count (WM115): 85.8%
cell count (WM1716): 102%
cell count (WM1745): 106%
cell count (WM3526): 29.5%
cell count (WM3619): 80.6%
cell count (WM451Lu): 40.2%

CO[C@H]1C[C@@H]2CC[C@@H](C)[C@@](O)(O2)C(=O)C(=O)N2CCCC[C@H]2C(=O)O[C@H]([C@H](C)C[C@@H]2CC[C@@H](OCCO)[C@H](OC)C2)CC(=O)[C@H](C)/C=C(\C)[C@@H](O)[C@@H](OC)C(=O)[C@H](C)C[C@H](C)/C=C/C=C/C=C/1C [everolimus] + COc1ccc(COc2ccc(Cc3cnc(N)nc3N)cc2OC)cc1 [GW2580] (first compound 0.02 µM, partner dose 1 µM)
cell count (WM115): 78.8%
cell count (WM1716): 77.9%
cell count (WM1745): 78.9%
cell count (WM3526): 61%
cell count (WM3619): 79%
cell count (WM451Lu): 90.6%

Nc1ccn([C@@H]2O[C@H](CO)[C@@H](O)C2(F)F)c(=O)n1 [gemcitabine] + CCCCCCCCCCCC1=C(O)C(=O)C=C(O)C1=O [Embelin] (first compound 0.0004 µM, partner dose 1.2 µM)
cell count (WM115): 94.3%
cell count (WM1716): 61.4%
cell count (WM1745): 75.1%
cell count (WM3526): 125%
cell count (WM3619): 92.2%
cell count (WM451Lu): 89%

CC(=O)O[C@@]12CO[C@@H]1C[C@H](O)[C@@]1(C)C(=O)[C@H](O)C3=C(C)[C@@H](OC(=O)[C@H](O)[C@@H](NC(=O)OC(C)(C)C)c4ccccc4)C[C@@](O)([C@@H](OC(=O)c4ccccc4)[C@H]21)C3(C)C [Docetaxel] + O=C(CCCCCCC(=O)Nc1ccccc1)NO [vorinostat] (first compound 0.0001 µM, partner dose 0.08 µM)
cell count (WM115): 62.8%
cell count (WM1716): 27%
cell count (WM1745): 54.2%
cell count (WM3526): 45.2%
cell count (WM3619): 79.7%
cell count (WM451Lu): 45.7%

CO[C@H]1C[C@@H]2CC[C@@H](C)[C@@](O)(O2)C(=O)C(=O)N2CCCC[C@H]2C(=O)O[C@H]([C@H](C)C[C@@H]2CC[C@@H](OCCO)[C@H](OC)C2)CC(=O)[C@H](C)/C=C(\C)[C@@H](O)[C@@H](OC)C(=O)[C@H](C)C[C@H](C)/C=C/C=C/C=C/1C [everolimus] + O=C(O)c1ccc2c(c1)nc(Nc1cccc(Cl)c1)c1ccncc12 [CX4945] (first compound 0.02 µM, partner dose 0.4 µM)
cell count (WM115): 78%
cell count (WM1716): 64%
cell count (WM1745): 98.1%
cell count (WM3526): 65.2%
cell count (WM3619): 75.4%
cell count (WM451Lu): 72.9%

CC(=O)c1c(C)c2cnc(Nc3ccc(N4CCNCC4)cn3)nc2n(C2CCCC2)c1=O [palbociclib] + O=C(O)C(=O)Nc1sc2c(c1C(=O)O)CCNC2 [TCS401] (first compound 0.04 µM, partner dose 1.66667 µM)
cell count (WM115): 69.9%
cell count (WM1716): 59.5%
cell count (WM1745): 63.6%
cell count (WM3526): 65.3%
cell count (WM3619): 73.2%
cell count (WM451Lu): 79.3%

CC(=O)c1c(C)c2cnc(Nc3ccc(N4CCNCC4)cn3)nc2n(C2CCCC2)c1=O [palbociclib] + CN(C)S(=O)(=O)c1ccc2c(c1)/C(=C/c1cc3c([nH]1)CCCC3)C(=O)N2 [SU6656] (first compound 0.04 µM, partner dose 0.4 µM)
cell count (WM115): 70.7%
cell count (WM1716): 62%
cell count (WM1745): 80.9%
cell count (WM3526): 63.9%
cell count (WM3619): 82.3%
cell count (WM451Lu): 70.5%

CC(=O)c1c(C)c2cnc(Nc3ccc(N4CCNCC4)cn3)nc2n(C2CCCC2)c1=O [palbociclib] + NC(=O)Nc1cc(-c2cccc(F)c2)sc1C(=O)N[C@H]1CCCNC1 [AZD7762] (first compound 0.04 µM, partner dose 0.02 µM)
cell count (WM115): 71.1%
cell count (WM1716): 55.5%
cell count (WM1745): 76.7%
cell count (WM3526): 45.9%
cell count (WM3619): 68.2%
cell count (WM451Lu): 63.4%

Nc1ccn([C@@H]2O[C@H](CO)[C@@H](O)C2(F)F)c(=O)n1 [gemcitabine] + CO[C@@H]1[C@H](N(C)C(=O)c2ccccc2)C[C@H]2O[C@]1(C)n1c3ccccc3c3c4c(c5c6ccccc6n2c5c31)C(=O)NC4 [Midostaurin] (first compound 0.0004 µM, partner dose 0.08 µM)
cell count (WM115): 86.3%
cell count (WM1716): 71.8%
cell count (WM1745): 67.1%
cell count (WM3526): 106%
cell count (WM3619): 59.7%
cell count (WM451Lu): 114%

Nc1nc(F)nc2c1ncn2[C@@H]1O[C@H](CO)[C@@H](O)[C@@H]1O [fludarabine] + Nc1cccc2c1CN(C1CCC(=O)NC1=O)C2=O [lenalidomide] (first compound 0.2 µM, partner dose 1 µM)
cell count (WM115): 97.9%
cell count (WM1716): 93.2%
cell count (WM1745): 101%
cell count (WM3526): 18%
cell count (WM3619): 116%
cell count (WM451Lu): 37.1%
